Results from publication PMC6919601, “Identification of Plasmodium dipeptidyl aminopeptidase allosteric inhibitors by high throughput screening” (PLoS ONE, 2019).
In all, about 110,000 compounds went through this assay and about 230 (0.21%) showed an effect of 50% or more. Some of the results follow.

These molecules were tested against DPAP1 (Plasmodium falciparum, UniProt Q8IIJ9) (assay: primary screen, percent inhibition; read by cleavage of a fluorogenic dipeptide substrate; higher = more effect of the substance).
Design: species or system P. falciparum D10 trophozoite lysates; single well
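Note: 30 min substrate incubation versus DMSO and 10 µM JCP410 controls.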

DPAP1, sequence (Q8IIJ9 whole entry, looked up): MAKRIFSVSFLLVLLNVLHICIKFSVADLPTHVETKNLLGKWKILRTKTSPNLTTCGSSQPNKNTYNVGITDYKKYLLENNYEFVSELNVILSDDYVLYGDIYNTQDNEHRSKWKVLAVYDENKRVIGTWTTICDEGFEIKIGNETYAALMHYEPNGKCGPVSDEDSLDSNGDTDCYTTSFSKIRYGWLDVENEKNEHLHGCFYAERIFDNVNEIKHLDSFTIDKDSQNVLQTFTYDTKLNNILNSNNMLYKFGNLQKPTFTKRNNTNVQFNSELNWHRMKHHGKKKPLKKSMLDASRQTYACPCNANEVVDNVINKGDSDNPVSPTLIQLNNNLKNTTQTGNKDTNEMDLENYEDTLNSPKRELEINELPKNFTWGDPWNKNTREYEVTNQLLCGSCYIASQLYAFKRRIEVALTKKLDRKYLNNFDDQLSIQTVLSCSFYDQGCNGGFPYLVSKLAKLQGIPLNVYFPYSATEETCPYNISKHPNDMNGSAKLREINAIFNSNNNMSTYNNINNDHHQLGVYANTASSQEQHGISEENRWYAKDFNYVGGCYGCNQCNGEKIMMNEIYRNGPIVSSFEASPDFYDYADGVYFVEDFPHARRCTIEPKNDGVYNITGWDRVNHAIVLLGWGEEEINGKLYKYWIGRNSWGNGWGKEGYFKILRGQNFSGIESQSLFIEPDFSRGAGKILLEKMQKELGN

Compound	% Inhibition @ 10 uM
COc1ccc(CNC(=O)CN(C)S(=O)(=O)c2c(C)cc(C)cc2C)cc1	0.83%
Cc1ccccc1Cn1c(SCc2ccc(C(=O)NCc3ccccn3)cc2)nc2ccncc21	-0.23%
Fc1ccc2c(c1)c1nnc(S)nc1n2Cc1ccccc1	3.73%
O=C(NCCC1=CCCCC1)c1cccc2c1C(=O)N(C1CCCCC1)C2	2.39%
COc1ccccc1NC(=O)C1=C(C)N=C2CCCC(O)=C2C1c1cccc(Cl)c1Cl (stereo not shown)	-1.21%
Cn1c(=O)c2c(nc(S)n2Cc2cc3c(cc2Cl)OCO3)n(C)c1=O	3.79%
O=C(O)C1C2C=CC3(CN(Cc4ccccc4)C(=O)C13)O2 (stereo not shown)	-7.61%
COc1ccccc1CNC(=O)CSc1nc2nncc-2c(O)n1-c1cccc(C(F)(F)F)c1	1.91%
COc1cccc(-c2nc(CS(=O)(=O)CC(=O)N(C)CCC#N)c(C)o2)c1	-0.138%
Cc1cccnc1NC(=O)C(NS(=O)(=O)c1cccc2nsnc12)C(C)C (stereo not shown)	1.05%
CCCOc1ccc(C(=O)Nc2ccc(CN3CCOCC3)cc2)cc1	-4.12%
CCCCNC(=O)Nc1ccc(OC)cc1C	-0.487%
CCCNC(=O)c1cnn(-c2ccccc2)c1-n1cccc1	1.8%
COc1cccc(C2NC(=O)NC(C)=C2C(=O)OCC2CCCCC2)c1 (stereo not shown)	11.8%
CC1CCc2nn(CC(=O)NCc3ccccn3)cc2C1 (stereo not shown)	3.4%
CC1CN(c2nc3ccccc3nc2SCC(=O)N2CCC3(CC2)OCCO3)CC(C)O1 (stereo not shown)	1.72%
COc1ccc(C(=O)N2CCN(Cc3cccc(C)c3)CC2)cc1OC	0.964%
O=S(=O)(c1ccc(Cl)cc1)C1(S(=O)(=O)c2ccc(Cl)cc2)CCCC1	-8.51%
Cc1nc2cccnc2n1-c1ccc(CC(=O)NCc2ccccc2Cl)cc1	2.32%
COc1cc(Br)ccc1C1/C(=C(\O)OC2CCCCC2)C(C)=Nc2nnnn21 (stereo not shown)	6.66%
COC(=O)c1cc(S(=O)(=O)NCc2ccccc2Cl)c[nH]1	-2.57%
c1ccc2c3c([nH]c2c1)CN(Cc1ccc2c(c1)OCO2)CC3	-1.93%
O=C(Nc1ccc2c(c1)OCO2)c1nn2c(C(F)(F)F)cc(-c3ccccc3)nc2c1Cl	-3.37%
Nc1nonc1-c1noc(-c2cccc(COc3ccc(Cl)cc3Cl)c2)n1	4.88%
O=[N+]([O-])c1ccc(S(=O)(=O)N2CCCc3ccccc32)cc1	0.78%

Compound	% Inhibition @ 10 uM
COCCNC(=O)c1cc(-c2ccccc2O)no1	-6.05%
Cc1cc(CN2C(=O)c3ccccc3C2=O)cc(C)n1	-0.902%
O=C(c1ccc2c(c1)OCO2)N1CCN(c2cccc(Cl)c2)CC1	-1.85%
O=C(C1CCN(S(=O)(=O)N2CCC3(CC2)OCCO3)CC1)N1CCOCC1	-2.99%
Cc1cc(-c2ccc(Cl)cc2)n2nc(N)nc2n1	3.36%
Cc1ccc(Cn2c(C(=O)O)c(CNCc3ccco3)c3ccc(C)cc32)cc1	4.67%
CC(C)C[C@H](NC(=O)c1ccc(-c2cccnc2)cc1)C(=O)NCC#N	-0.778%
Cc1cc2ccccc2c(=O)n1CC(=O)N1CCN(c2ccccn2)CC1	-1.51%
CNCCc1c[nH]c2ccc(OCc3ccccc3)cc12	3.47%
Cc1csc(NC(=O)Cn2cnc3c2c(=O)n(C)c(=O)n3C)n1	0.408%
CC(=O)n1cc(/C=C(\C)[N+](=O)[O-])c2ccccc21	1.7%
CC/N=C1\SC(CC(=O)Nc2ccccc2F)C(=O)N1CC (stereo not shown)	-0.641%
Cc1cc(C)c2c(cnn2CC(=O)N2CCc3ccccc3C2)c1	-4.71%
Cc1ccc(N2C(=O)CC(N3CCN(C4CC(=O)N(c5ccc(C)cc5)C4=O)CC3)C2=O)cc1 (stereo not shown)	-7%
c1ccc2c(c1)CCC(NCCc1c[nH]cn1)C2 (stereo not shown)	3.48%
CCOCC(O)CSc1nc(C)cc(C)n1 (stereo not shown)	1.04%
CCOc1ccccc1Cn1cccc1C=O	2.9%
O=C(Nc1ccc(Cl)cc1C(=O)NCC1CCCO1)c1ccco1 (stereo not shown)	0.52%
Cc1ccc(S(=O)(=O)N(CC(=O)NCc2ccccc2)c2ccc(Cl)cc2)cc1	-0.796%
CC1=C(C(=O)Nc2cccc(C)n2)C(c2ccccc2)C2=C(O)CC(C)(C)CC2=N1 (stereo not shown)	-2.56%
COc1cc(OC)cc(C(=O)N2CCN(C(c3ccccc3)c3ccccc3)CC2)c1	6.3%
CCCc1[nH]nc2c1C(c1cc(OC)c(OC)cc1OC)C(C#N)=C(N)O2 (stereo not shown)	-0.99%
CC(=O)/N=C1\SC2CS(=O)(=O)CC2N1Cc1ccccc1 (stereo not shown)	3.81%
COc1ccc(S(=O)(=O)n2nc(-c3ccccc3OC)cc2N)cc1OC	-5.76%
